The campaign covered roughly 310,000 compounds. About 2,200 (0.71%) showed an effect of 50% or more. The effect is printed as a negative number. This is one part of the list.

In this assay the target is human ether-à-go-go-related gene (hERG) potassium channel (human, UniProt Q12809). The assay can be described thus: primary screen, population patch clamp on CHO cells stably expressing hERG.
Chain of human ether-à-go-go-related gene (hERG) potassium channel (Q12809 whole entry, looked up): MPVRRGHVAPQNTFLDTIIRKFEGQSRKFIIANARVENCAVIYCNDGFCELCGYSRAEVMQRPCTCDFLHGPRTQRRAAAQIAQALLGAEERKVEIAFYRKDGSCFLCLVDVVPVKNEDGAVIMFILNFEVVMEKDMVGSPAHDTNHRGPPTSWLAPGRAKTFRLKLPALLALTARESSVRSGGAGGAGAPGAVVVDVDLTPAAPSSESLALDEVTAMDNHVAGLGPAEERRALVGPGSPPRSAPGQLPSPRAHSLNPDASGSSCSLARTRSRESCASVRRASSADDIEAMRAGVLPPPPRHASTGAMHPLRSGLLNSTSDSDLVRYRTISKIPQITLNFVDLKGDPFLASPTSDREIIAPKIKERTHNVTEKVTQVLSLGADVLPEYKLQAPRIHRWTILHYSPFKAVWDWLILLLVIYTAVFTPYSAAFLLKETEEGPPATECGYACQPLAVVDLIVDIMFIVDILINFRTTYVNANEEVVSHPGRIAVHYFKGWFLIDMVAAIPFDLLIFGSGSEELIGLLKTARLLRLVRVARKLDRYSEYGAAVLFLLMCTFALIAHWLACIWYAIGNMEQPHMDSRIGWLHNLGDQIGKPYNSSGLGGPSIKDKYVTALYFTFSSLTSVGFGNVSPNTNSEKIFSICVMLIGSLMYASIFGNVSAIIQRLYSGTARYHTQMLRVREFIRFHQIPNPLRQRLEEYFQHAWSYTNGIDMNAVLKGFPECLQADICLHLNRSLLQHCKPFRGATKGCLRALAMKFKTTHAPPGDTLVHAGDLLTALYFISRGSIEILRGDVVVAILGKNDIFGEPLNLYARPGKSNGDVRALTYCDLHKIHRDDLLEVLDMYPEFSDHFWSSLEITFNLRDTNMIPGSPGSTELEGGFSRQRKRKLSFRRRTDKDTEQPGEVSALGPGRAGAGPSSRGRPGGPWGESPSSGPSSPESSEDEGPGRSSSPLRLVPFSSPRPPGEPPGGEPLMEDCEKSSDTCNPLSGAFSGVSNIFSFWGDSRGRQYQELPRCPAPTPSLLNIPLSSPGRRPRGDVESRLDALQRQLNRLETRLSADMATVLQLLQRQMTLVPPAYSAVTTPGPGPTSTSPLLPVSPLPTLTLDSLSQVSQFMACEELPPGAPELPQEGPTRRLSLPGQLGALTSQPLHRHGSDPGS
Regarding `CC(Nc1ccnc2cc(Cl)ccc12)c1ccc(S(N)(=O)=O)cc1` (stereo not shown), the “hERG current change (%, negative = inhibition) at 1uM” value was -4.25%.
On to `OCCCc1nc2ccccc2n1CCOc1ccccc1`, for which the “hERG current change (%, negative = inhibition) at 1uM” value is 9.25%.
In the case of `Cc1ccsc1/C=C(/C#N)C(=O)NCc1ccccc1` it was 13.8%; in that of `O=C(NC1CCCCCC1)C1CCN(S(=O)(=O)c2c(Cl)cccc2Cl)CC1`, 10.9%; in that of `CCCCC(=O)NC(c1ccc(C(C)C)cc1)c1ccc2cccnc2c1O` (stereo not shown), 18.2%.
As to `Cc1oc(-c2ccccc2Cl)nc1CS(=O)CC(=O)NCCCN1CC(C)CC(C)C1` (stereo not shown), the “hERG current change (%, negative = inhibition) at 1uM” value is recorded as 18.2%.
In the case of `Cc1cc(Cl)ccc1OCC(=O)Nc1ccccc1NS(=O)(=O)c1cccs1` it was 8.67%; in that of `Cc1ccc(N2C(=O)C3CCC(C)(C2=O)C3(C)C)cc1` (stereo not shown), 12.2%.
As for `CCCOc1ccc(NC(=O)C2CCCNC2=O)cc1` (stereo not shown), the figure is 11.2%.
As for `CC(C)(C)NC(=O)C(=O)NC(=O)c1c(F)cccc1Cl`, the figure is 6.52%; as for `O=C(Nc1ccc(OC(F)F)cc1)Nc1cccc(C(F)(F)F)c1`, 10.7%; as for `Cc1ccc(S(=O)(=O)N(C)C)cc1NC(=O)C(C)N(C)Cc1sccc1C` (stereo not shown), 2.76%.
For `Cc1c(C=O)c2ccccn2c1C(=O)c1ccc(F)cc1`, the “hERG current change (%, negative = inhibition) at 1uM” value is -1.68%.
Take `Cc1ccnc(NC(=O)C2CCCN(S(=O)(=O)c3cnc[nH]3)C2)c1` (stereo not shown): the “hERG current change (%, negative = inhibition) at 1uM” value was determined as 4.81%.
As for `CC1CCC(NC(=O)CNC(=O)c2ccc3ccccc3c2)CC1` (stereo not shown), the figure is 21.1%.
In the case of `O=C(CN1CCN(Cc2ccc3c(c2)OCO3)CC1)Nc1cc(S(=O)(=O)N2CCCC2)ccc1Cl` it was 0.0396%.
Regarding `COc1ccc(OCc2cccc(C(=O)Nn3cc([N+](=O)[O-])cn3)c2)cc1`, the “hERG current change (%, negative = inhibition) at 1uM” value is given as -8.38%.
On to `Cc1c(NC(=O)OCCNC(=O)COc2ccc(Cl)cc2Cl)sc(=S)n1C`, for which the “hERG current change (%, negative = inhibition) at 1uM” value stood at 7.93%.
In the case of `Cc1cc(C)c(C#N)c(Nc2ccccc2F)n1` it was 11.5%; in that of `Cc1ccc(C(=O)OCC(=O)NCC2COc3ccccc3O2)cc1` (stereo not shown), 16.1%; in that of `CCn1cc(C(=O)O)c(=O)c2cc(F)c(N3CCN(S(=O)(=O)c4ccc(Br)cc4)CC3)cc21`, 2.28%.
In the case of `CC(C)Cc1cc(C(=O)N2CCN(C(c3ccccc3)c3ccccc3)CC2)no1` it was 4.13%; in that of `Cc1ccc(C)c(OCc2nnc(SCC(=O)NCc3ccc4c(c3)OCO4)o2)c1`, 6.55%.
As for `O=C(NCc1ccccc1)c1ccc(=O)oc1`, the figure is 4.23%; as for `NC(=O)CSc1oc(-c2ccco2)nc1S(=O)(=O)c1ccc(Cl)cc1`, -1.6%; as for `COc1ccc(OC)c(/C=N/NC(=O)C(=O)NCc2cccnc2)c1`, 15.8%.
On to `O=C(Nc1ccccc1C(F)(F)F)c1cc(-c2ccccc2O)on1`, for which the “hERG current change (%, negative = inhibition) at 1uM” value came out at 14.3%.
For the molecule `Cc1ccc(NC(=O)CN(C)S(=O)(=O)c2cccc3cccnc23)cc1F`, the “hERG current change (%, negative = inhibition) at 1uM” value came out at 8.58%.
As for `CCN1/C(=C2\C(=O)N(c3ccccc3)N=C2C)C=Cc2cc(C)ccc21`, the figure is -1.41%.
As for `CC(=O)c1c(CSc2ccccc2)oc2ccc(O)c(CN(C)C)c12.Cl`, the figure is -8.75%.
In the case of `O=c1ccc(C(F)(F)F)cn1Cc1cc(=O)n2ccsc2n1` it was 14.8%; in that of `COc1ccc(C(=O)NCC(=O)OCC(=O)Nc2c(C)n(C)n(-c3ccccc3)c2=O)cc1`, 7.05%; in that of `CC(C)CNC(=O)c1ccccc1NC(=O)Nc1ccccc1`, 13.6%.
`CCNC(=O)C/C(C)=N/NC(=O)C(=O)Nc1ccc(CC)cc1`: the “hERG current change (%, negative = inhibition) at 1uM” value is on record as 8.09%.
As to `O=C(CN1C(=O)C2CC=CCC2C1=O)Nc1nnc(SCc2c(Cl)cccc2Cl)s1` (stereo not shown), the “hERG current change (%, negative = inhibition) at 1uM” value turned out to be 11.3%.
Turning to `O=C(Nc1ccsc1C(=O)O)c1cccc(Oc2ccccc2)c1`, the “hERG current change (%, negative = inhibition) at 1uM” value is 8.51%.
As for `O=C(c1cc(-c2ccccc2Cl)nc2ccccc12)N1CCN(c2ccccc2O)CC1`, the figure is 6.78%; as for `CCC(C)NC(=O)CN1C(=O)NC2(CCOc3ccccc32)C1=O` (stereo not shown), 1.53%; as for `CCC(=O)Nc1ccc2c(c1)nc(CCN1CCN(c3ccccn3)CC1)n2C`, 4.59%.
Turning to `CSC(=CC(=O)c1ccc(F)cc1)SC`, the “hERG current change (%, negative = inhibition) at 1uM” value was found to be 5.16%.
For the molecule `CC(=O)COC(=O)C1CCN(S(=O)(=O)c2cc([N+](=O)[O-])ccc2Cl)CC1`, the “hERG current change (%, negative = inhibition) at 1uM” value was -10.6%.
As for `COCCNC(=O)CN(c1ccc(OC)c(OC)c1)S(=O)(=O)c1ccc(C)cc1`, the figure is 1.92%.
On to `CC(=O)C1C(c2ccc(C)cc2)c2c(noc2C)CC1(C)O` (stereo not shown), for which the “hERG current change (%, negative = inhibition) at 1uM” value was 12.7%.
As for `Cc1nn(-c2ccccc2)c(C)c1CCC(=O)O`, the figure is 13.3%; as for `O=C(O)c1cccc2c1C(=O)N(CC1CCCO1)C2` (stereo not shown), 21.4%.
As for `COCCCn1c(SCc2nnc(-c3ccc(OC)c(OC)c3)o2)nc2ccccc2c1=O`, the “hERG current change (%, negative = inhibition) at 1uM” value was -2.02%.
In the case of `CC(C)[N+](C)(C)CC(O)CN(c1ccccc1)c1ccccc1.[I-]` (stereo not shown) it was -1.75%; in that of `O=C(c1cc(-c2ccco2)nn1-c1cccc(Cl)c1)N1CCCCC1`, -2.12%; in that of `Cc1c(C2=CCN(S(=O)(=O)c3ccc(Cl)cc3)CC2)c2ccccc2n1C`, 22.4%.
As for `COc1cccc(NC(=O)CSc2nnc(-c3cccs3)n2C)c1`, the figure is 7.61%; as for `CCOCCCNC(=O)C(c1ccc(C)cc1)N(Cc1ccc2c(c1)OCO2)C(=O)c1cnccn1` (stereo not shown), 12.7%.
As for `COc1cc2c(cc1OC)CN(C(=O)C1CCN(S(=O)(=O)c3ccccc3F)CC1)CC2`, the figure is 8.26%; as for `Cc1cc(C)n(-c2ccc(C(=O)OCC(=O)N(CC(C)C)C3CCS(=O)(=O)C3)cc2)n1` (stereo not shown), 10.9%; as for `CCN(C(=O)COC(=O)CNC(=O)c1ccc(C)c(C)c1)C1CCS(=O)(=O)C1` (stereo not shown), -0.46%.
Turning to `Cc1ccc(C)c(OCCCN2CCc3ccccc3C2)c1.Cl`, the “hERG current change (%, negative = inhibition) at 1uM” value was determined as 9.39%.

These data come from paper PMC4336329 (PLoS ONE, 2015).
